Assay results taken from PubChem BioAssay AID485294 (National Center for Advancing Translational Sciences (NCATS), 2010).
The campaign covered roughly 370,000 compounds. About 150 (0.041%) were called active. The shares of active, inactive and inconclusive entries below differ from those in the screen. Calls follow the shape of the dose curve; as a rule, active = well fitted inhibition curve with a large enough effect; inconclusive = small, poorly fitted or top-dose-only effect; inactive = flat fitted curve, though single readings scatter. No potency is given beside an inconclusive call; the fits are too rough.

Molecular target: Beta-lactamase (Escherichia coli (strain K12)) (UniProt P00811)
Experiment: qHTS Inhibitors of AmpC Beta-Lactamase (assay with detergent); also: nearly all actives have a fitted effect of over 25% in size
Conditions: AmpC hydrolysis of nitrocefin, absorbance 480 nm, 0.01% Triton; series mostly up to 114 µM
How it was run: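 20 mM phosphate pH 7.0 + 0.01% (detergent screen) or 0.0001% Triton X-100; 5.3 nM AmpC reagent; cpd preinc 15 min RT; nitrocefin (800 uM stock) to start; A480 q20 s × 4 min; Activity was normalised to no-enzyme and no-compound control wells.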
Potency is read from the fitted curve at half-maximal effect; tags tell the direction and shape of the fitted curve.

Chain of UniProt P00811 (P00811 whole entry, looked up): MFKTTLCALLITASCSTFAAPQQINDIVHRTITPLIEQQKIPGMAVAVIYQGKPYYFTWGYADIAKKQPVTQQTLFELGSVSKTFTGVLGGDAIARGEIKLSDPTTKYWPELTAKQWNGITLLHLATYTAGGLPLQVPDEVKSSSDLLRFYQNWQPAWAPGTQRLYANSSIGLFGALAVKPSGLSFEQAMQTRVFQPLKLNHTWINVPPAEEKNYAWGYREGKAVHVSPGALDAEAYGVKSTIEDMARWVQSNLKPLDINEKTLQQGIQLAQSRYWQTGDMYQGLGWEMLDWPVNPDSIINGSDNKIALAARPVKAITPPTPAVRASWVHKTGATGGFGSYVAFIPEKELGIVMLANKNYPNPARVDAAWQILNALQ

**Q.** `CCOC(=O)[C@H]1[C@H]2COc3cc(OC)ccc3[C@@H]2N2C(=O)N(c3cccc(Cl)c3)C(=O)[C@@]12C` was tested. Which Potency did it give?
**A.** inconclusive [inhibitor, partial curve, poor fit]

**Q.** How did the Potency turn out when `COc1ccc2[nH]c(=O)c(CN(CC3CCCO3)C(=O)Nc3ccc(F)cc3)cc2c1` (centres undefined) was run?
**A.** inconclusive [inhibitor, full curve]

**Q.** For `CCCCOc1ccc(C(=O)Nc2ccc(CN3CCOCC3)cc2)cc1`, which Potency is on record?
**A.** inconclusive [inhibitor, full curve, poor fit]

**Q.** For `O=C(O)c1ccc(/C=N/Nc2ncc(Cl)cc2Cl)cc1`, which Potency is on record?
**A.** inactive

**Q.** For `CCC1(c2ccc(F)cc2)NC(=O)N(CC(=O)N2CCN(S(=O)(=O)c3ccc(Cl)cc3)CC2)C1=O` (centres undefined), which Potency is on record?
**A.** inconclusive [inhibitor, single point]

**Q.** With `CCC(=O)N1CCc2cc(Br)cc(S(=O)(=O)CCC(=O)N(C)c3cccc(C)c3)c21` as the compound, how does the Potency read?
**A.** inconclusive [inhibitor, partial curve]

**Q.** `CC(=O)N(C)Cc1ccc(C(=O)CCl)cc1` was tested. Which Potency did it give?
**A.** inactive

**Q.** With `COc1ccc(C2C(=O)N(C3CCC(C)CC3)CC(=O)N2C2CCCCC2)cc1OC` (centres undefined) as the compound, how does the Potency read?
**A.** inactive

**Q.** With `CC1CCCN(S(=O)(=O)c2ccc(NC(=O)Cn3nnc(-c4ccccc4F)n3)cc2)C1` (centres undefined) as the compound, how does the Potency read?
**A.** inconclusive [inhibitor, partial curve]

**Q.** Which Potency does the source give for `CCc1cccc(NC(=O)C2CCCN2S(=O)(=O)c2cccc3cccnc23)c1` (centres undefined) here?
**A.** inconclusive [inhibitor, full curve, poor fit]

**Q.** With `COc1cc(C=O)c(-c2c(C=O)cc(OC)c3c2OCO3)c2c1OCO2` as the compound, how does the Potency read?
**A.** inactive

**Q.** `O=C(Nc1nnc(-c2cccs2)o1)c1cc(-c2ccccc2)nc2ccccc12` was tested. Which Potency did it give?
**A.** inconclusive [inhibitor, full curve, poor fit]

**Q.** For `O=c1c2ccccc2nnn1CSc1nnc(Nc2ccccc2)s1`, which Potency is on record?
**A.** inconclusive [inhibitor, full curve, poor fit]

**Q.** How did the Potency turn out when `CCOc1ccc(-n2nnc3c(=O)n(CC(=O)c4ccccc4)cnc32)cc1` was run?
**A.** inconclusive [inhibitor, full curve]

**Q.** With `CC(=O)c1ccc(OCc2cc(C(=O)N(C)Cc3cc(C)no3)no2)cc1` as the compound, how does the Potency read?
**A.** inactive

**Q.** For `CC(C)(C)c1[nH]nc2c1C(Cc1ccccc1)C(C#N)=C(N)O2` (centres undefined), which Potency is on record?
**A.** inconclusive [inhibitor, full curve]

**Q.** How did the Potency turn out when `O=C(c1ccc2nccnc2c1)N1CCN(c2ccccc2)CC1` was run?
**A.** inactive

**Q.** `COc1ccc(NC(=O)Cn2nc(SC)c(S(=O)(=O)c3ccc(C)cc3)c2N)cc1OC` was tested. Which Potency did it give?
**A.** inactive

**Q.** `CS(=O)(=O)N(CC(=O)Nc1ccc(F)cc1F)C1CCCCC1` was tested. Which Potency did it give?
**A.** inconclusive [inhibitor, full curve, poor fit]
